Some of the results follow. The list includes weakly bound sequences.
Target: T1, MBP-FoxP3dN (UniProt Q99JB6)
T1 sequence: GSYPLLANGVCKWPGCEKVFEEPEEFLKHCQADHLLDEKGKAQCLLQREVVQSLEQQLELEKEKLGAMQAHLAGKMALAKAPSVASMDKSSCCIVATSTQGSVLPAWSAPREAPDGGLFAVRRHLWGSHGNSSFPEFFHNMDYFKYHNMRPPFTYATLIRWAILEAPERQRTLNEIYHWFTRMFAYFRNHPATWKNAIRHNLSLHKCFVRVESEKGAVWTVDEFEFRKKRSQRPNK
Assay: PD-seq (MBP pull-down with sequencing)
Settings: 20 mM Tris-HCl pH 7.5, 100 mM NaCl, 1.5 mM MgCl2, 0.4 uM protein, 0.1 uM dsDNA library, 30 min, room temperature, amylose pull-down; high values mean tight binding; double strand, one strand shown

Sequence | binding signal (RPM ratio (pull-down/input))
GATGATTGTTCTCCCAGCTGATGAATTGGTGAGGTCGAGTAAACAAATTTTCCTAATCTTTCTGTTCAAGCGCCATCTAC | 0.385
GATGATTGTTCTCCCAGCTGATGAATTTATCGGGTCGAGTAAACAAATTTTCCTAATCTTTCTGTTCAAGCGCCATCTAC | 0.725
GATGATTGTTCTCCCAGCTGATGAATTCACGAATTCGAGTAAACAAATTTTCCTAATCTTTCTGTTCAAGCGCCATCTAC | 0.551
GATGATTGTTCTCCCAGCTGATGAATTTTTAAACTCGAGTAAACAAATTTTCCTAATCTTTCTGTTCAAGCGCCATCTAC | 0.29
GATGATTGTTCTCCCAGCTGATGAATTGAATGTATCGAGTAAACAAATTTTCCTAATCTTTCTGTTCAAGCGCCATCTAC | 1.11
GATGATTGTTCTCCCAGCTGATGAATTTTTACTTTCGAGTAAACAAATTTTCCTAATCTTTCTGTTCAAGCGCCATCTAC | 0.282
GATGATTGTTCTCCCAGCTGATGAATTTCCGAGATCGAGTAAACAAATTTTCCTAATCTTTCTGTTCAAGCGCCATCTAC | 0.216
GATGATTGTTCTCCCAGCTGATGAATTACCATTTTCGAGTAAACAAATTTTCCTAATCTTTCTGTTCAAGCGCCATCTAC | 0.384
GATGATTGTTCTCCCAGCTGATGAATTGGGTGGTTCGAGTAAACAAATTTTCCTAATCTTTCTGTTCAAGCGCCATCTAC | 0.736
GATGATTGTTCTCCCAGCTGATGAATTCGCTCGATCGAGTAAACAAATTTTCCTAATCTTTCTGTTCAAGCGCCATCTAC | 0.282
GATGATTGTTCTCCCAGCTGATGAATTAGGAGCTTCGAGTAAACAAATTTTCCTAATCTTTCTGTTCAAGCGCCATCTAC | 0.351
GATGATTGTTCTCCCAGCTGATGAATTTGACCGCTCGAGTAAACAAATTTTCCTAATCTTTCTGTTCAAGCGCCATCTAC | 0.288
GATGATTGTTCTCCCAGCTGATGAATTGCGCACGTCGAGTAAACAAATTTTCCTAATCTTTCTGTTCAAGCGCCATCTAC | 2.45
GATGATTGTTCTCCCAGCTGATGAATTTCTCTCGTCGAGTAAACAAATTTTCCTAATCTTTCTGTTCAAGCGCCATCTAC | 0.26
GATGATTGTTCTCCCAGCTGATGAATTCGGAACATCGAGTAAACAAATTTTCCTAATCTTTCTGTTCAAGCGCCATCTAC | 0.387
GATGATTGTTCTCCCAGCTGATGAATTCGGCCACTCGAGTAAACAAATTTTCCTAATCTTTCTGTTCAAGCGCCATCTAC | 4.83
GATGATTGTTCTCCCAGCTGATGAATTGAAAAGATCGAGTAAACAAATTTTCCTAATCTTTCTGTTCAAGCGCCATCTAC | 0.17
GATGATTGTTCTCCCAGCTGATGAATTCGAAGACTCGAGTAAACAAATTTTCCTAATCTTTCTGTTCAAGCGCCATCTAC | 0.261
GATGATTGTTCTCCCAGCTGATGAATTTGGCCGGTCGAGTAAACAAATTTTCCTAATCTTTCTGTTCAAGCGCCATCTAC | 0.531
GATGATTGTTCTCCCAGCTGATGAATTGACTCAGTCGAGTAAACAAATTTTCCTAATCTTTCTGTTCAAGCGCCATCTAC | 0.273

Sequence | binding signal (RPM ratio (pull-down/input))
GATGATTGTTCTCCCAGCTGATGAATTAACCGCTTCGAGTAAACAAATTTTCCTAATCTTTCTGTTCAAGCGCCATCTAC | 0.356
GATGATTGTTCTCCCAGCTGATGAATTGCGCATCTCGAGTAAACAAATTTTCCTAATCTTTCTGTTCAAGCGCCATCTAC | 8.03
GATGATTGTTCTCCCAGCTGATGAATTGAGGAACTCGAGTAAACAAATTTTCCTAATCTTTCTGTTCAAGCGCCATCTAC | 0.206
GATGATTGTTCTCCCAGCTGATGAATTTAGGGTCTCGAGTAAACAAATTTTCCTAATCTTTCTGTTCAAGCGCCATCTAC | 1.07
GATGATTGTTCTCCCAGCTGATGAATTAAAAACTTCGAGTAAACAAATTTTCCTAATCTTTCTGTTCAAGCGCCATCTAC | 0.307
GATGATTGTTCTCCCAGCTGATGAATTACCCGTCTCGAGTAAACAAATTTTCCTAATCTTTCTGTTCAAGCGCCATCTAC | 0.3
GATGATTGTTCTCCCAGCTGATGAATTGCTTACATCGAGTAAACAAATTTTCCTAATCTTTCTGTTCAAGCGCCATCTAC | 2.43
GATGATTGTTCTCCCAGCTGATGAATTCAGTATATCGAGTAAACAAATTTTCCTAATCTTTCTGTTCAAGCGCCATCTAC | 2.12
GATGATTGTTCTCCCAGCTGATGAATTTATGGTATCGAGTAAACAAATTTTCCTAATCTTTCTGTTCAAGCGCCATCTAC | 1.97
GATGATTGTTCTCCCAGCTGATGAATTGATGCGATCGAGTAAACAAATTTTCCTAATCTTTCTGTTCAAGCGCCATCTAC | 3.21
GATGATTGTTCTCCCAGCTGATGAATTACGGTCTTCGAGTAAACAAATTTTCCTAATCTTTCTGTTCAAGCGCCATCTAC | 0.525
GATGATTGTTCTCCCAGCTGATGAATTTAATCCGTCGAGTAAACAAATTTTCCTAATCTTTCTGTTCAAGCGCCATCTAC | 0.28
GATGATTGTTCTCCCAGCTGATGAATTGTTACGCTCGAGTAAACAAATTTTCCTAATCTTTCTGTTCAAGCGCCATCTAC | 0.837
GATGATTGTTCTCCCAGCTGATGAATTATATCTCTCGAGTAAACAAATTTTCCTAATCTTTCTGTTCAAGCGCCATCTAC | 0.584
GATGATTGTTCTCCCAGCTGATGAATTAATTCGCTCGAGTAAACAAATTTTCCTAATCTTTCTGTTCAAGCGCCATCTAC | 0.369
GATGATTGTTCTCCCAGCTGATGAATTCTTGTCATCGAGTAAACAAATTTTCCTAATCTTTCTGTTCAAGCGCCATCTAC | 0.625
GATGATTGTTCTCCCAGCTGATGAATTGGTAATTTCGAGTAAACAAATTTTCCTAATCTTTCTGTTCAAGCGCCATCTAC | 0.629
GATGATTGTTCTCCCAGCTGATGAATTGCATGGGTCGAGTAAACAAATTTTCCTAATCTTTCTGTTCAAGCGCCATCTAC | 2.12
GATGATTGTTCTCCCAGCTGATGAATTGATGCTCTCGAGTAAACAAATTTTCCTAATCTTTCTGTTCAAGCGCCATCTAC | 2.04
GATGATTGTTCTCCCAGCTGATGAATTGACGTGTTCGAGTAAACAAATTTTCCTAATCTTTCTGTTCAAGCGCCATCTAC | 0.695
